Measured values as given in PubChem BioAssay AID493208 (National Center for Advancing Translational Sciences (NCATS), 2011).
Among all 44,000 compounds or so, about 340 (0.77%) were called active. Inconclusive means that the source gave no clear call. Such entries were picked first, then a sample of the others. The call rests on the fitted dose curve; in most records, active means well fitted inhibition curve with a large enough effect; inconclusive means small, poorly fitted or top-dose-only effect; inactive means flat fitted curve, though single readings scatter. Potencies of inconclusive entries are left out as doubtful fits.

experiment: Acumen qHTS Assay for Inhibitors of the mTORC1 Signaling Pathway in MEF (Tsc2-/-, p53-/-) Cells: Sytravon; conditions: phospho-rpS6 immunofluorescence/PI, 24 h; series mostly up to 38.3 µM; further: nearly all actives have a fitted effect of over 50% in size
Method in brief: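 Readout is phospho-S6 Alexa 488 signal normalized to PI per well, reported as % active cells with thresholds set from rapamycin (7.5 nM) and DMSO controls. Cells: Tsc2-/-, p53-/- MEFs, 24 hrs compound at 37 C; PI cell number serves as viability.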
Potency means the concentration at half of the fitted maximal effect; tags describe the fitted curve by direction and shape.

SMILES	Potency
CCN(CC)c1ccc(NC(=O)C(Cc2ccccc2)NS(=O)(=O)c2ccc(Br)s2)c(C)c1 (configuration not stated)	inconclusive [falling, partial curve, poor fit]
COc1ccc(CCNCc2c(C(=O)O)c(C)n(Cc3ccccc3C)c2C)c(OC)c1	inactive
O=C(Cn1c(=O)n(Cc2ccco2)c(=O)c2oc3ccccc3c21)Nc1ccc(F)cc1F	inactive
CCC(Sc1nnc(C)n2c1cc1occc12)C(=O)Nc1ccccc1F (configuration not stated)	inconclusive [falling, single point]
COC(=O)c1cc2oc3ccccc3c2n1CC(=O)Nc1ccc(OC)c(OC)c1OC	inconclusive [falling, partial curve, poor fit]
COc1cccc(OC(=O)CSc2nnc(-c3ccccc3OC)o2)c1	inactive
Cc1ccc(S(=O)(=O)NCC(c2ccc(N(C)C)cc2)N2CCCC2)cc1 (configuration not stated)	inactive
CCc1nn2c(=O)cc(COC(=O)c3ccccc3NC(=O)COc3ccccc3C)nc2s1	inactive
Cc1cccc(C)c1Nc1c(-c2ccsc2)nc2ccccn12	inactive
CN1C(=O)c2ccccc2Sc2ccc(NC(=O)Nc3ccccc3F)cc21	inactive
O=C(Cn1c(SCC(=O)Nc2ccc(F)cc2)nc2ccccc21)NCc1ccc(F)cc1	inconclusive [falling, partial curve, poor fit]
CCC1=Nc2cc(C(=O)NCCCOC)ccc2Sc2ccc(Br)cc21	inconclusive [falling, full curve]
CCN1CCc2nc3sc(C(=O)Nc4cccc(Cl)c4C)c(N)c3cc2C1	inconclusive [falling, partial curve]
Cc1c(C(=O)NCc2cccc(Cl)c2)sc2nc3n(c(=O)c12)CCC3	inconclusive [falling, single point]
CCOC(=O)c1c(C)c(-c2ccccc2)n(CC(=O)Nc2cc(C)cc(C)c2)c1C	inconclusive [falling, single point]
O=C(Nc1cccc(C(F)(F)F)c1)c1cccc(C(=O)Nc2cccc(C(F)(F)F)c2)c1	inconclusive [falling, single point]
O=S(=O)(c1ccccc1)c1nc(-c2cccc(Cl)c2)oc1N1CCOCC1	inconclusive [falling, single point]
COc1ccc(CCN2C(=O)c3[nH]nc(-c4ccccc4O)c3C2c2ccccc2)cc1 (configuration not stated)	inconclusive [falling, single point]
Cc1ccccc1-c1nc(SCC(=O)N(C)c2ccccc2)c2c(=O)n(C)c(=O)n(C)c2n1	inconclusive [falling, single point]
CC(C)n1c(=N)c(C(=O)NC2CCCCC2)cc2c(=O)n3ccccc3nc21	inconclusive [falling, partial curve, poor fit]
Clc1cccc(CSc2nnc(C3CCNCC3)o2)c1	inconclusive [falling, single point]

SMILES	Potency
O=C1CN(C(=O)Nc2ccccc2C(F)(F)F)C(c2ccccc2)c2c(sc3c2CCCC3)N1 (configuration not stated)	inactive
CCN1C(=O)C2(c3ccccc31)c1c(oc3ccc(F)cc3c1=O)C(=O)N2CCCOC (configuration not stated)	inconclusive [falling, single point]
CN(C)S(=O)(=O)c1ccc(C(=O)Nc2ccc(-n3nncc3-c3ccccc3)cc2)cc1	inconclusive [falling, single point]
COc1ccc(Cl)cc1NC(=O)c1ccc2c(c1)CCCN2S(C)(=O)=O	inactive
Cc1cccc(C)c1NC(=O)Cn1c(=O)n(CCC(=O)NCc2ccccc2Cl)c(=O)c2sccc21	inconclusive [falling, single point]
COc1ccc(OCC(=O)NCc2ccc3c(c2)CCN3C(=O)c2cccc(C)c2)cc1	inconclusive [falling, partial curve]
CC(=O)N1CCCC1c1nc2ccccc2n1Cc1cccc(C)c1 (configuration not stated)	inactive
CCCCC(=O)OC1=CN(Cc2ccccc2)S(=O)(=O)c2ccccc21	inconclusive [falling, single point]
CC(C)CCNc1nc(Nc2ccccc2)c2cnn(C)c2n1	inconclusive [falling, partial curve]
CCOC(=O)c1c(NC(=O)c2cc(-c3cccc(Cl)c3)on2)sc(C)c1C	inconclusive [activator, full curve, poor fit]
CCN1CCc2c(sc(NC(=O)c3ccc(S(=O)(=O)N4CCCC(C)C4)cc3)c2C(=O)OC)C1 (configuration not stated)	inconclusive [falling, single point]
CCCCSc1nnc2c(n1)OC(c1ccc(Br)s1)Nc1ccccc1-2 (configuration not stated)	inconclusive [falling, partial curve, poor fit]
O=C(NCc1ccccc1Cl)c1nnc(Cc2cccc(F)c2)o1	inconclusive [falling, partial curve, poor fit]
Cc1ccc2c(CC(=O)N(Cc3ccc(N(C)C)cc3)Cc3ccco3)coc2c1C	inconclusive [falling, partial curve, poor fit]
O=C1CSC2(C(=O)N(Cc3cccc(C(F)(F)F)c3)c3ccccc32)N1c1ccc(F)c(F)c1 (configuration not stated)	inconclusive [falling, partial curve, poor fit]
CCc1ccc(OCC(=O)N(Cc2ccc(C(C)C)cc2)C2CCS(=O)(=O)C2)cc1 (configuration not stated)	inconclusive [falling, partial curve, poor fit]
O=C(Nc1ccccc1C(F)(F)F)c1ccc(F)c(S(=O)(=O)N2CCc3ccccc3C2)c1	inactive
COc1ccc(-n2c(SCCC(C)C)nc3sc4c(c3c2=O)CC(C(C)C)OC4)cc1 (configuration not stated)	inconclusive [falling, single point]
Cc1ccc(OCC(=O)NCC2(N3CCN(C)CC3)CCCCC2)cc1	inconclusive [falling, single point]
COc1cccc(-n2c(SCc3cccc(C)c3)nc3c([nH]c4ccccc43)c2=O)c1	inconclusive [falling, single point]
CCOCc1cc(CN2CCN(c3cccc(C(F)(F)F)c3)CC2)c(O)c2ncccc12	inconclusive [falling, partial curve]

SMILES	Potency
O=C(Nc1cc(Cl)cc(Cl)c1)c1cc(S(=O)(=O)NC2CCCC2)ccc1F	inconclusive [falling, single point]
Cc1ccc(Nc2c(-c3c[nH]c4ccccc34)nc3ccccn23)cc1	inconclusive [falling, single point]
CC(C)Oc1ccccc1-c1nc(SCC(=O)c2ccc(F)cc2)n[nH]1	inconclusive [falling, single point]
Cc1ccc(C)c(Cn2c3ccccc3c3cnn(CC(=O)NC(C)CCc4ccccc4)c(=O)c32)c1 (configuration not stated)	inconclusive [falling, partial curve, poor fit]
COc1ccc(NC(=O)c2c(C)oc3ccc(O)c(CN4CCC(C)CC4)c23)cc1Cl	inconclusive [falling, single point]
Cc1cccc(CNC(=O)Cn2c(-c3cccs3)cc3ccccc32)c1	inconclusive [falling, partial curve, poor fit]
CC(C)(C)C(=O)Nc1ccc(-c2nc3ccc(NC(=O)C(C)(C)C)cc3[nH]2)cc1	inconclusive [falling, partial curve]
CC(C)(C)OC(=O)N1CCC(c2c(C(=O)NCc3ccccc3)cnn2-c2cccc(F)c2)CC1	inactive
COc1ccc(S(=O)(=O)NCC(c2cccs2)S(=O)(=O)c2ccccc2)cc1OC (configuration not stated)	inactive
Cc1ccc(CN2CCC(CNC(=O)c3cnn(-c4ccccc4Cl)c3C3CCN(C(=O)OC(C)(C)C)CC3)CC2)cc1	inconclusive [falling, single point]
O=C(CS(=O)(=O)c1cccc2nsnc12)Nc1ccccc1Cl	inconclusive [falling, partial curve, poor fit]
CC1CCCN(C(=O)c2cc3ccc4cccnc4c3[nH]2)C1 (configuration not stated)	inactive
CCSc1ncc(Cl)c(C(=O)N2CCN(c3ccccc3OC)CC2)n1	inconclusive [falling, partial curve, poor fit]
Cc1ccc(-c2nc(C)c(CCNC(=O)c3cccs3)s2)cc1	inconclusive [falling, partial curve, poor fit]
CCN(CC)c1nc2ccccc2nc1C(=O)Nc1ccc(C(C)=O)cc1	inconclusive [falling, partial curve, poor fit]
COc1ccc(NC(=O)[C@H]2O[C@@H]3OC(C)(C)O[C@@H]3[C@H]3OC(C)(C)O[C@H]32)c(OC)c1	inconclusive [falling, single point]
Cc1ccc(CNCc2ccccc2)s1	inactive
O=C1C(Nc2ccccc2)=CC(c2ccc(Br)cc2)N1c1ccccc1 (configuration not stated)	inconclusive [falling, single point]
Cc1ccc(CN2CCC(CNC(=O)Nc3cccc(Cl)c3C)C2)cc1 (configuration not stated)	inconclusive [falling, single point]
Nc1c(C(=O)c2ccc(F)cc2)sc(Nc2ccccc2F)c1S(=O)(=O)c1ccc(Br)cc1	inconclusive [falling, single point]
